Source: PubChem BioAssay (NCATS)
Several values for one entry are separate records, joined by “and”; a condition that tells them apart may be missing. Equal values may be shown once. This list was built around the results that the source calls inconclusive (neither active nor inactive); the mix of calls is not that of the screen. For part of these data: Where the call is inconclusive, the potency comes from a doubtful curve fit. Activity calls are given as the source filed them. Unless noted, calls follow the shape of the dose curve; as a rule, active = well fitted curve in the direction sought with a large enough effect; inconclusive = small, poorly fitted or top-dose-only effect, or another doubt; inactive = no such curve, though single readings can be large; an effect the other way counts as inactive or inconclusive.

Tests used:
[1] = Cell Viability - H-4-II-E (AID 543); also: nearly all actives have a fitted effect of over 35% in size; also: potency is read from the fitted curve at half-maximal effect
Method in brief: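 Luminescent ATP signal (CellTiter-Glo) served as the viability read-out, with cytotoxicity seen as a concentration-dependent ATP drop. Cells were treated for 40 hours in complete medium. AC50 values derive from Hill-equation modelling.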

[2] = Cell Viability - N2a (AID 540); settings: N2a mouse neuroblastoma cell viability; activity change, negative = cytotoxicity: at 92.2 µM (top of the series); also: nearly all actives have a fitted effect of over 45% in size; also: potency is read from the fitted curve at half-maximal effect;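 as to activity change, negative = cytotoxicity: plate controls were DMSO alone for no effect and tamoxifen control for full effect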
Method in brief: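 Luminescent ATP signal (CellTiter-Glo, 20 min at room temperature) served as the viability read-out after N2a cells were treated with compounds for 40 hours at 37 °C. Concentration-response data were fitted to the Hill equation for AC50.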

[3] = Cell Viability - NIH 3T3 (AID 541); settings: NIH 3T3 cell viability, qHTS; activity change, negative = cytotoxicity: at 92.2 µM (top of the series); also: nearly all actives have a fitted effect of over 25% in size; also: potency is read from the fitted curve at half-maximal effect;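 as to activity change, negative = cytotoxicity: plate controls were DMSO alone for no effect and tamoxifen positive control for full effect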
Method in brief: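 Luminescent ATP signal (CellTiter-Glo) served as the viability read-out after NIH 3T3 cells were exposed to compounds over a concentration range for 40 hr at 37 °C. Hill-equation modelling of concentration-response data gave AC50.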

[4] = Cell Viability - HUV-EC-C (AID 542); also: nearly all actives have a fitted effect of over 35% in size; also: potency is read from the fitted curve at half-maximal effect; as to activity change, negative = cytotoxicity: % is scaled to controls: 0 for no effect and ±100 for the full control effect
Method in brief: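 qHTS cytotoxicity: HUV-EC-C, 1000 cells/well, 5 hr settle, compound 40 hr 37 °C, CellTiter-Glo, luminescence. AC50 via Hill equation.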

[5] = molecular target: Mitogen-activated protein kinase 10 (Mus musculus) (UniProt Q61831); assay: JNK3 AlphaScreen Assay (AID 530; active = well fitted curve in either direction with a large enough effect, not every such curve was filed as active; inconclusive = small, poorly fitted or top-dose-only effect, or another doubt;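 also: kinase came from lysate of stimulated human HepG2 cells; signal reports phosphorylation of biotinylated GST-cJun 1-79 at Ser73 with 10 µM ATP; potency is read from the fitted curve at half-maximal effect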); settings: JNK3 lysate, c-Jun phosphorylation; activity change, negative = inhibition: at 57.1 µM (top of the series)
Method in brief: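 Pre-activated (IL-1β/TNFα) JNK3 in HepG2 lysates phosphorylates biotin-GST-cJun(1-79), 10 uM ATP; anti-phospho-cJun(Ser73) AlphaScreen read at room temperature, pH 7.6 Tris buffer. Compounds pre-incubated 15 min as titrations.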

[6] = Cell Viability - Renal Proximal Tubule (AID 545); settings: renal proximal tubule cells viability, primary cells of rat origin; activity change, negative = cytotoxicity: at 91.7 µM (top of the series); also: nearly all actives have a fitted effect of over 40% in size; also: potency is read from the fitted curve at half-maximal effect
Method in brief: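 Cytotoxicity is scored as a concentration-dependent drop in cellular ATP in primary rat renal proximal tubule cells exposed for 40 hr. AC50 derives from Hill modelling.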

[7] = molecular target: 3',5'-cyclic-AMP phosphodiesterase 4B (Homo sapiens) (UniProt Q07343); assay: qHTS Assay for Inhibitors of PDE-IV (AID 607; active = well fitted activation curve with a large enough effect in the main read-out, with a control signal flat, not every such curve was filed as active; inconclusive = small, poorly fitted or top-dose-only effect, or effect the other way, or a change in a side signal; also: potency is read from the fitted curve at half-maximal effect)
Sequence of UniProt Q07343 (Q07343 whole entry, looked up): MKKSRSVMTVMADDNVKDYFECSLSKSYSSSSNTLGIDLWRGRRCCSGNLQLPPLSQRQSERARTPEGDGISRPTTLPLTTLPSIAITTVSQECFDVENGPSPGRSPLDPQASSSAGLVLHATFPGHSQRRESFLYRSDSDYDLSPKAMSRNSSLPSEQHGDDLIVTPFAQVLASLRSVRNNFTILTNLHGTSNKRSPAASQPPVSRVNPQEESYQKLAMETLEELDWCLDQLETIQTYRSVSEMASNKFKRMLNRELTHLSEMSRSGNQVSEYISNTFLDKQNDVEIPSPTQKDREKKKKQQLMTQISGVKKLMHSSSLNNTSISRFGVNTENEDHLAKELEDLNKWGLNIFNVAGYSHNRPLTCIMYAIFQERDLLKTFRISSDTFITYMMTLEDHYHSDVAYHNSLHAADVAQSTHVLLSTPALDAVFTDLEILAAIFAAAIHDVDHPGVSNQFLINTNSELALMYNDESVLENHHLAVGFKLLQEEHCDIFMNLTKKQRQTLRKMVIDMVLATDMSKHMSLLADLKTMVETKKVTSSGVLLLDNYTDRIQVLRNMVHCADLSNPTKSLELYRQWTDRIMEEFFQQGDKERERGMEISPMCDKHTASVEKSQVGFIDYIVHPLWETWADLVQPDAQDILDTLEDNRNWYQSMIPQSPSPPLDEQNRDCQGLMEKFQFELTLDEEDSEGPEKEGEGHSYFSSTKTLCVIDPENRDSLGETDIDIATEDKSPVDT
Method in brief: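 Cell-based read-out of cAMP via a modified cyclic nucleotide-gated channel and membrane potential dye (535/590 nm) in HEK293 cells expressing PDE4 endogenously. Compounds tested up to 22.9 uM final; 100 uM RO 20-1724 reference.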

[8] = Cellular Toxicity (caspase-3) HepG2 (AID 654); settings: HepG2 caspase-3 activation, luminescence; also: potency is read from the fitted curve at half-maximal effect
Method in brief: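 Cells plated 5 hr at 37 °C, compound added, incubated 16 hr at 37 °C. Caspase-Glo 3/7 reagent followed, 20 min at room temperature, then luminescence read. Activation scored as signal increase; AC50 from Hill fit.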

[9] = Cellular Toxicity (caspase-3) HUV-EC-C (AID 656); settings: HUV-EC-C cells, caspase-3 activation (apoptosis); also: potency is read from the fitted curve at half-maximal effect
Method in brief: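 Read-out: luminescence proportional to caspase 3/7 activity, measured 20 min after adding Caspase-Glo 3/7 reagent. Cells (HUV-EC-C) had received compound for 16 hr at 37°C. Increases relative to DMSO and 100 uM tamoxifen gave concentration-response AC50 values.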

[10] = Cellular Toxicity (caspase-3) SHSY5Y (AID 657); settings: SH-SY5Y caspase-3 activation; caspase-3 activation: at 91.7 µM (top of the series), DMSO zero, 10 µM staurosporine = 100%; also: potency is read from the fitted curve at half-maximal effect
Method in brief: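 Cells plated and incubated 5 h at 37 °C, dosed over a concentration range, incubated 16 h, then given Caspase-Glo 3/7 reagent for 1 h at room temperature before luminescence reading. Staurosporine (10 uM) defined full stimulation.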

[11] = Cellular Toxicity (caspase-3) BJ (AID 658); settings: Potency: caspase-3 activation; also: potency is read from the fitted curve at half-maximal effect
Method in brief: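 BJ human foreskin fibroblasts, 1000 cells/well, treated 16 hours at 37 °C in complete medium; caspase 3/7 activity by Caspase-Glo luminescence after 1 hr at room temperature. Normalized to DMSO and 10 uM staurosporine; AC50 from Hill fits.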

[12] = Cellular Toxicity (caspase-3) MRC-5 (AID 659); settings: Potency: caspase-3 activation; also: potency is read from the fitted curve at half-maximal effect
Method in brief: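 MRC-5 human normal lung fibroblasts, 1500 cells/well, treated 16 h at 37 °C in complete medium. Caspase 3/7 measured by Caspase-Glo luminescence after 1 h at room temperature. Normalized to DMSO and 10 uM staurosporine; AC50 from Hill fit.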

[13] = Cellular Toxicity (caspase-3) Mesangial (AID 660); settings: mesangial cells; Potency: caspase-3 activation; caspase-3 activation: at 91.7 µM (top of the series), normalized: DMSO 0%, 100 µM tamoxifen 100%; also: potency is read from the fitted curve at half-maximal effect
Method in brief: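 Mesangial cells, 1000/well, 5 h settle at 37 °C; compound 16 h, 37 °C; Caspase-Glo 3/7 reagent 20 min RT; luminescence. Norm.: DMSO = 0%, tamoxifen 100 uM = 100%. AC50, Hill fit.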

[14] = Cellular Toxicity (caspase-3) SK-N-SH (AID 661); settings: SK-N-SH caspase-3 activation, qHTS; caspase-3 activation: at 91.7 µM (top of the series), DMSO as zero, staurosporine as full; also: potency is read from the fitted curve at half-maximal effect
Method in brief: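 Human neuroblastoma SK-N-SH, 1500 cells/well, 5 hr pre-incubation, then compound 16 hr, 37 °C. Caspase-Glo 3/7 reagent, 1 hr RT, luminescence. Norm. to DMSO/10 uM staurosporine; Hill-fit AC50.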

[15] = Cellular Toxicity (caspase-3) H-4-II-E (AID 663); settings: H-4-II-E rat hepatoma; Potency: caspase-3 activation; caspase-3 activation: at 92.2 µM (top of the series), scaled: DMSO 0%, 100 µM tamoxifen 100%;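 also: cells exposed to compound for 16 hr before readout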
Method in brief: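 Rat hepatoma H-4-II-E cells (1500/well) plated 5 hr, then exposed to compound titrations for 16 hr at 37 °C. Caspase-Glo 3/7 luminescence read after 20 min at RT; data normalized to DMSO and 100 uM tamoxifen, AC50 from Hill fits.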

[16] = Cellular Toxicity (caspase-3) Hek293 (AID 664); settings: HEK293 caspase-3 activation, DMSO = 0%, 100 µM tamoxifen = 100%; at 92.2 µM (top of the series);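 also: cells exposed to compound for 16 h at 37 °C before readout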
Method in brief: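 Cells plated, 5 hr at 37 °C; compounds added; 16 hr at 37 °C; Caspase-Glo 3/7 reagent, 20 min RT; luminescence read. Activation expressed relative to DMSO and 100 uM tamoxifen, AC50 by Hill model.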

[17] = Cellular Toxicity (caspase-3) N2a (AID 665); settings: N2a cells, luminescence; Potency: caspase-3 activation; caspase-3 activation: at 92.2 µM (top of the series), normalized: DMSO 0%, 10 µM staurosporine 100%;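 also: compound exposure lasted 16 h at 37 °C before readout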; also: potency is read from the fitted curve at half-maximal effect
Method in brief: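 N2a cells, 1500/well, 5 h settle at 37 °C; cpd 16 h, 37 °C; Caspase-Glo 3/7, 1 h RT; luminescence. Norm: DMSO = 0, 10 uM staurosporine = 100%. AC50, Hill fit.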

[18] = Cellular Toxicity (caspase-3) NIH 3T3 (AID 666);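 also: caspase signal read after 16 h compound exposure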; also: potency is read from the fitted curve at half-maximal effect;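 as to caspase-3 activation: 0% = DMSO basal and 100% = 100 µM tamoxifen stimulation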
Method in brief: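 Luminescence from aminoluciferin released by caspase-3/7 cleavage of a peptide substrate served as read-out. Mouse fibroblast NIH 3T3 cells were exposed to compounds over a concentration range for 16 hours, and AC50 values came from standard Hill modelling.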
Tags tell the direction and shape of the fitted curve.

C=C(CC)C(=O)c1ccc(OCC(=O)O)c(Cl)c1Cl
Potency [1]: inconclusive: 50.1 µM [falling, partial curve]

Nc1ncn([C@@H]2O[C@H](CO)[C@@H](O)[C@H]2O)c(=O)n1
activity change, negative = cytotoxicity [2]: inconclusive: -49.1%
Potency [1]: inconclusive: 15.8 µM [falling, partial curve]

NC(N)=NC(N)=NCCc1ccccc1
activity change, negative = cytotoxicity [3]: inconclusive: -43.8%
Potency [1]: inconclusive: 31.6 µM [falling, partial curve]

CN(C)/N=N/c1nc[nH]c1C(N)=O
activity change, negative = cytotoxicity [3]: inconclusive: -41.8%
Potency [1]: active: 25.1 µM

C[C@H]1O[C@@H](O[C@H]2[C@@H](O)C[C@H](O[C@H]3[C@@H](O)C[C@H](O[C@H]4CC[C@@]5(C)[C@H](CC[C@@H]6[C@@H]5C[C@@H](O)[C@]5(C)[C@@H](C7=CC(=O)OC7)CC[C@]65O)C4)O[C@@H]3C)O[C@@H]2C)C[C@H](O)[C@@H]1O
activity change, negative = cytotoxicity [2]: inconclusive: -34.1%
activity change, negative = cytotoxicity [3]: active: -91%

IC(I)I
Potency [4]: inactive
Potency [1]: inactive

CC(C)O
activity change, negative = cytotoxicity [3]: inconclusive: -31.3%

C[C@@H]1C[C@H]2[C@@H]3CCC4=CC(=O)C=C[C@]4(C)[C@@]3(F)[C@@H](O)C[C@]2(C)[C@@]1(O)C(=O)CO
activity change, negative = cytotoxicity [3]: inconclusive: -47.1%
Potency [1]: inactive

CCOc1ccc(NC(C)=O)cc1
Potency [1]: inconclusive: 79.4 µM [falling, single point]

O=S(=O)(O)O
Potency [2]: inactive

CC/C(=C(\c1ccccc1)c1ccc(OCCN(C)C)cc1)c1ccccc1
Potency [5]: inconclusive: 25.1 µM [activator, partial curve, poor fit]
activity change, negative = cytotoxicity [3]: inconclusive: -69%
activity change, negative = cytotoxicity [6]: active: -109%
Potency [7]: inconclusive: 10 µM [activator, partial curve, poor fit] and inconclusive: 15.1 µM [activator, single point] and inconclusive: 19 µM [activator, single point]
Potency [8]: active: 50.1 µM
Potency [9]: active: 63.1 µM
Potency [10]: inconclusive: 50.1 µM [rising, partial curve]
Potency [11]: inconclusive: 79.4 µM [rising, single point]
Potency [12]: inconclusive: 31.6 µM [rising, single point]
caspase-3 activation [13]: inconclusive: 37.3%
caspase-3 activation [14]: inconclusive: 70.3%
caspase-3 activation [15]: inconclusive: 92.4%
caspase-3 activation [16]: active: 147%
caspase-3 activation [17]: inconclusive: 30.7%

COc1cccc2c1C(=O)c1c(O)c3c(c(O)c1C2=O)C[C@@](O)(C(=O)CO)C[C@@H]3O[C@H]1C[C@H](N)[C@H](O)[C@H](C)O1
Potency [2]: active: 0.398 µM
Potency [3]: active: 0.0794 µM
Potency [4]: inconclusive: 0.0398 µM [falling, full curve, poor fit]
Potency [8]: inconclusive: 0.251 µM [rising, single point]
Potency [10]: active: 0.0158 µM
Potency [14]: active: 0.251 µM
Potency [17]: active: 3.16 µM
Potency [18]: active: 0.398 µM

CN(C)c1ccc(C(=C2C=CC(=[N+](C)C)C=C2)c2ccc(N(C)C)cc2)cc1
Potency [5]: active: 2 µM
Potency [6]: active: 12.6 µM
Potency [8]: active: 31.6 µM
Potency [9]: inconclusive: 31.6 µM [rising, single point]
Potency [10]: active: 3.16 µM
Potency [11]: active: 15.8 µM
Potency [12]: active: 6.31 µM
Potency [13]: active: 31.6 µM
Potency [14]: active: 10 µM
caspase-3 activation [16]: inconclusive: -1.7%
caspase-3 activation [17]: inconclusive: 64%
Potency [18]: active: 31.6 µM

Cc1cc2c(C(C)C)c(O)c(O)c(C=O)c2c(O)c1-c1c(C)cc2c(C(C)C)c(O)c(O)c(C=O)c2c1O
Potency [5]: inconclusive: 15.8 µM [inhibitor, single point] and inconclusive: 12.6 µM [inhibitor, partial curve]
Potency [7]: inconclusive: 19 µM [inhibitor, single point]

Cc1c(O)cccc1C(=O)N[C@@H](CSc1ccccc1)[C@H](O)CN1C[C@H]2CCCC[C@H]2C[C@H]1C(=O)NC(C)(C)C
activity change, negative = cytotoxicity [3]: inconclusive: -44.2%
Potency [6]: active: 31.6 µM
Potency [12]: active: 50.1 µM
caspase-3 activation [14]: inconclusive: 38%
caspase-3 activation [15]: inconclusive: 118%
caspase-3 activation [16]: inconclusive: 31.5%

CC/C(=C(/CC)c1ccc(O)cc1)c1ccc(O)cc1
activity change, negative = cytotoxicity [2]: active: -83.5%
activity change, negative = cytotoxicity [3]: inconclusive: -47.5%
Potency [4]: inconclusive: 25.1 µM [falling, partial curve, poor fit]
Potency [1]: inconclusive: 31.6 µM [falling, partial curve]
activity change, negative = cytotoxicity [6]: inconclusive: -42.5%

Oc1ccc(Cl)cc1Sc1cc(Cl)ccc1O
Potency [2]: active: 31.6 µM
Potency [4]: active: 31.6 µM
Potency [1]: active: 39.8 µM
activity change, negative = cytotoxicity [6]: inconclusive: -36.6%
Potency [15]: inactive

C[C@H](CCC(=O)O)[C@H]1CC[C@H]2[C@@H]3CC[C@@H]4C[C@H](O)CC[C@]4(C)[C@H]3C[C@H](O)[C@]12C
Potency [1]: inactive
Potency [18]: inactive

C=CCNC(N)=S
Potency [12]: inactive

CCOc1ccc2c(c1)C(C)=CC(C)(C)N2
Potency [18]: inactive
